Source: the supplement of paper PMC10338343
± gives the standard deviation. This is a selection; strong and weak results do not stand in their true shares.

Test system: MIWI (PIWIL1) piRISC loaded with piRNA #1 (30 nt)
Test: pre-steady-state target cleavage rate (min^-1); MIWI and MILI are mouse PIWI proteins and EfPiwi is from a freshwater sponge; tags in brackets are library labels; higher = faster piRNA-guided slicing of the target
Conditions: guide: piRNA #1 5'p-UGAGGUAGUAGGUUGUAUAGUAUCCAGAGG; auxiliary factor: 500 nM mouse GTSF1
Summary of the method: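 Cleave-'n-Seq: a transcribed, DNA-blocked target RNA library (0.1 nM) was mixed with 1 nM active affinity-purified piRISC carrying one synthetic guide, with or without 500 nM GTSF1 partner protein, in HEPES–potassium acetate buffer at 33 °C for 0–8 or 0–960 min. Uncleaved targets were sequenced and normalised to depth and to weakly complementary targets. Three trials were pooled, and k3 was capped at 0.0001 min^-1. The pre-steady-state cleavage rate came from a burst-and-steady-state fit.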

Sequence	pre-steady-state target cleavage rate
GGUCUGGAUACUAUUGAACCUACUACCUCA	0.442 ± 0.042
GGAGACCAUACUAUACCACCUACUACCUCA	1.28 ± 0.095
GCUCUGGUUACUAUACAACCUACUAGCUCA	0.565 ± 0.055
GGACUGGAUACUAUACAACCUACAUCCUCA	0.0189 ± 0.0037
GGAGACCUAUCUAUACAACCUACUACUUCA	1.32 ± 0.088
GCUCAGGAUACUAUACAACCUACUAGCUCA	0.477 ± 0.041
CCUCUGGAUUCUAUACAACGUACUACCUCA	0.768 ± 0.038
GGUCUGGAUACUAUUCUACCUACUACCUCA	1.14 ± 0.11
GGAGAUGAUACUAUACAACCUACUACCUCA	1.86 ± 0.095
CCUCUGGAUUCUAUACAACCAACUACCUCA	0.178 ± 0.02
GGAGAGGAUUACUAUACAACCUACUACCUCA	1.38 ± 0.08
GGAGUGGAUACUAGUACAACCUACUACCUCA	1.29 ± 0.078
GGAGAGGAUACUAUUCAACGUACUACCUCA	0.114 ± 0.017
GGAGACGAUACUGUACAACCUACUACCUCA	0.895 ± 0.054
GGAGUGGAUACUAUAAAACCUACUACCUCA	1.53 ± 0.092
GGAGACGAUACAAUACUACCUACUACCUCA	0.646 ± 0.061
CCUCUGGAUACUAUACAAGCUUCUACCUCA	0.196 ± 0.019
GGAGACCUAUGUAUACAACCUGCUACCUCA	0.0174 ± 0.0032
GGAGACCAUACUAUACAACCUAACUACCUCA	0.0261 ± 0.0051
GGACUGGAUAGUAUACAACCUACUACCACA	0.264 ± 0.036

Sequence	pre-steady-state target cleavage rate
CCUCUGGAAACUAUACAACGUACUACCUCA	1.03 ± 0.059
GGAGACCUUUCUAUACAACCUUCUACCUCA	0.151 ± 0.017
CCUCUGGUUACUAUACAAGCUACUACCUCA	0.776 ± 0.028
GGACUGCAUACUAUACAACCUACUACGUCA	0.49 ± 0.053
GCUCUGGAUACUAUACAACCUACCUACCUCA	1.63 ± 0.091
GGACUGGAUACUAUAAACCUACUACCUCA	0.989 ± 0.12
GGAGACCUUACUAUACAACCUAUUACCUCA	1.63 ± 0.16
GGACUGGAUACUAUACAUCCUACUAGCUCA	0.379 ± 0.045
GGAGACGUUACUAUACAACCUACUACCUCA	1.62 ± 0.096
GGUCUCGAUACUAUACAACCUACUACCACA	0.758 ± 0.064
GGAGACCUAACUAAACAACCUACAACCUCA	0.0123 ± 0.0077
GCUCUGGAUUGUAUACAACCUACUACCUCA	0.846 ± 0.065
GGAGAGGAUACAAUACAACCUACUACCACA	1.13 ± 0.075
GGAGAGGAUACUAAACAACCUACAACCUCA	0.744 ± 0.074
GGAGUGGAUCACUAUACAACCUACUACCUCA	1.32 ± 0.15
GGAGAGGAUACAUAUACAACCUACUACCUCA	1.05 ± 0.059
GGUCUGGAUUCUAUACAACGUACUACCUCA	0.989 ± 0.06
GGAGACGAUUCUAUACAACCUACAACCUCA	0.953 ± 0.059
GGAGACGAGUACUAUACAACCUACUACCUCA	1.47 ± 0.12
GGAGACGAUAGUAAACAACCUACUACCUCA	0.468 ± 0.061
